PubChem BioAssay AID2060493 (Molecular Pharmacology Branch, DTP, NCI, 2025)
A number of entries come with more than one value. The list is limited to them. An entry can have further records. Results that share an entry are repeated measurements in other runs, samples, wells, individuals or studies. Brackets with × stand for listed records that agree.

System: 616215-338-R-J1-PDC tumor spheroids, viability
Assay: Anticancer human tumor 616215-338-R-J1-PDC patient-derived colon adenocarcinoma cell line growth inhibition [GQUAD]
Details: spheroids with HUVEC and MSC; for viability, T/C: stronger effect = lower value
Text: DNA G-quadruplex Stabilizer Agents in Combinations in Complex Spheroids
A high-throughput screen of multi-cell type tumor spheroids was designed to identify active combinations of DNA G-quadruplex stabilizer agents and targeted small molecules. Complex spheroids include a stromal component modeled by human endothelial cells (HUVEC) and fibroblasts modeled by human mesenchymal stem cells (MSCs). The concentration ranges selected for each drug and investigational agent were based upon clinically achievable concentrations if the clinical Cmax of the agent was known.
Compounds. The drugs and investigational agents: pidnarulex (CX-5461; NSC782164), APTO-253 (NSC789042), BRACO-19 (NSC847499), peposertib (NSC802822), ceralasertib (NSC780249), elimusertib (NSC800525), camonsertib (NSC841442), AZD-1390 (NSC803789), olaparib (NSC753686), talazoparib (NSC767125), ART-558 (NSC835418), sotorasib (NSC818433), MRTX-1133 (NSC836407), SN-38 (NSC673596), topotecan (NSC609699), etoposide (NSC141540), doxorubicin (NSC123127), gemcitabine (NSC613327), 5-fluorouracil (NSC19893), paclitaxel (NSC125973), vemurafenib (NSC761431), panobinostat (NSC761190), R-306465 (JNJ-16241199; NSC773264), adavosertib (NSC754352), TP-3654 (NSC805149), carboplatin (NSC241240), KSQ-4279 (NSC840948), and staurosporine (NSC755774) were obtained from the National Cancer Institute (NCI) Developmental Therapeutics Program Chemical Repository (34). The FDA-approved anticancer drug set is available from the NCI Developmental Therapeutics Program. […] The stock solutions were prepared in dimethyl sulfoxide (DMSO, Sigma-Aldrich, St. Louis, MO, cat. D2650) at 800-fold the tested concentration and stored at -70 degrees C prior to their use. All drugs and investigational agents were tested over a range starting from a high concentration at or near the clinical Cmax and decreasing in half-log increments. If the clinical Cmax for an agent had not been determined, the highest concentration tested was 10 microM.
2.3 Cell Culture. All cells were maintained in an incubator at 37 degrees C and 5% CO2 with 95% humidity. The PDC lines were cultured according to standard operating procedures established by the NCI PDMR. All PDCs were thawed and cultured in Matrigel-coated flasks prepared with a working solution of 1X Ham's F-12 nutrient mix, without supplementation (Invitrogen, cat. 11765054), 100 U/mL penicillin-streptomycin (Invitrogen, cat. 15140122), and 2.5% Matrigel (Corning Inc., cat. 354248) for the first three passages. […]
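Further: spheroids exposed to agents for 7 days before readout.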
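Wherever viability, T/C is given: percent viability relative to DMSO vehicle control wells taken as 100%.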

## Cc1cnc(CNC(=O)c2c(=O)c3ccc(N4CCCN(C)CC4)nc3n3c2sc2ccccc23)cn1
Compound alone 0.1 µM
  viability, T/C: 85.6, 87.3 (2×), 69.2, 67.4, 65.6, 74.6, 70, 61, 57.3, 58.7, 82.9%
Compound alone 0.316 µM
  viability, T/C: 49.2, 40.2, 49.6, 65.9, 48.5, 45.1, 38.7, 38.2 (2×), 55.1, 46, 57.4%
Compound alone 1 µM
  viability, T/C: 40, 50.4, 59.5, 40.5, 29.7, 31.6, 26.8, 34.9, 37.4, 30.8, 29.9, 22.8%
Compound alone, run of 04/16/2024
  IC50: 377, 250, 653, 548, 300, 232, 223, 212, 288, 160, 211, 348 nM
